Over roughly 33,000 sequences, “E-score (-0.5 to 0.5)” has its median near -0.032; the highest 2% begin near 0.36. The list shows a part of the results.
Molecular target: T1, Sko1 (UniProt Q02100)
T1 sequence: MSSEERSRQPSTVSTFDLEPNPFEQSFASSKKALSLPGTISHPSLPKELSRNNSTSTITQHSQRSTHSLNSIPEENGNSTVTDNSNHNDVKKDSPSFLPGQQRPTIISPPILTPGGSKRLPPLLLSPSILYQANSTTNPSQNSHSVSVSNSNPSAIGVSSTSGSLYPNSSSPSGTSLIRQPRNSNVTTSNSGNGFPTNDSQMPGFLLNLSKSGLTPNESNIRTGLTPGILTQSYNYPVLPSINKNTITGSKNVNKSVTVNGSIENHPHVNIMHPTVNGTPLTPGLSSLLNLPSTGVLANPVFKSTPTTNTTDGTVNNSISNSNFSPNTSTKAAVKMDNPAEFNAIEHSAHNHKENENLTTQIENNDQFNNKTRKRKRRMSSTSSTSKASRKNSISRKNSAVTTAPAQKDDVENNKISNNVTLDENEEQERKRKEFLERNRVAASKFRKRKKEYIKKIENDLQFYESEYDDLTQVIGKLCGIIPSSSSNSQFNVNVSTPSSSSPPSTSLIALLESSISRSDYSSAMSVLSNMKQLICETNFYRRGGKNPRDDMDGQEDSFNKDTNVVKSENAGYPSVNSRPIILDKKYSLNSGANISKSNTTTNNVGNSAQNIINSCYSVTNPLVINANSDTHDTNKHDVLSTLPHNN
Assay: PBM E-score (8-mer binding enrichment) (E-score (-0.5 to 0.5)); higher = stronger / more preferred TF binding; most listed sequences are background and not binding sites
Details: protein concentration: 200 nM; construct: GST-full length
Method: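 Universal 'all 10-mer' protein binding microarrays (Agilent AMADID 015681) probed with GST-tagged S. cerevisiae TFs (full-length or DBD) made by in vitro transcription/translation (PURExpress), about 100-200 nM. Bound TF was detected with fluorescent anti-GST. Each ungapped 8-mer (which stands for itself and its reverse complement) is scored by the PBM enrichment score (E-score), a modified Wilcoxon-Mann-Whitney statistic from -0.5 to +0.5, computed with the Universal PBM Analysis Suite. Scale: above 0.35 generally sequence-specific binding.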

Row | Sequence | PBM E-score
1 | ACGATGTA | 0.226
2 | CAGATTAC | 0.186
3 | CGATGATA | 0.126
4 | CATAGCTC | 0.0909
5 | CGAGCGTA | 0.129
6 | ACAGTGGA | -0.0428
7 | AAAGATCG | 0.0205
8 | CGTCTCAG | 0.0209
9 | CTTAATAC | 0.267
10 | ACCTCTCC | -0.112
11 | GAAGGGAA | -0.0887
12 | AACTCGAG | -0.00786
13 | GAATTTGA | 0.0364
14 | TAAGACTA | -0.0768
15 | GAGAATCC | -0.0249
16 | CGGAGAAC | -0.0372
17 | CAGGGAAG | -0.212
18 | TACGCTCA | 0.176
19 | GCGTCCAA | -0.016
20 | GTGATAAA | 0.224
21 | CTTCAATA | 0.197
22 | TGGCGAAA | -0.0259

Row | Sequence | PBM E-score
23 | TAGCACAA | 0.0507
24 | GTACAGTA | 0.0318
25 | AACAGTGA | 0.081
26 | CAGAAAGG | -0.145
27 | TTACGCAA | 0.466
28 | AGTCACAG | -0.0124
29 | CCCCCGCA | -0.273
30 | CTGTGTTC | -0.00553
31 | AACGCATA | 0.219
32 | CAATACCC | -0.0336
33 | TCCGAAGA | -0.111
34 | CGATGGCA | -0.103
35 | CGCAATAG | 0.19
36 | ACCGACGG | -0.181
37 | AATTGTAA | 0.0478
38 | ACAGGGAA | -0.143
39 | AGCCCAGC | -0.207
40 | TAGCCAGA | -0.141
41 | AGCTAATC | 0.169
42 | GTCCACGA | -0.131
43 | AGAGTCTG | -0.319
44 | ACGCTCGC | 0.123

Row | Sequence | PBM E-score
45 | GGAGCTAC | -0.112
46 | GTACTCGA | 0.0478
47 | CATATGAA | 0.137
48 | GAGATCTA | -0.0105
49 | TGTTACAA | 0.077
50 | GCCCACCA | -0.287
51 | CCCAAGCG | -0.251
52 | AACTTGTA | 0.0747
53 | CTTTGGTA | -0.104
54 | ATTAACAC | 0.335
55 | AGGAACGG | -0.233
56 | CTTAAAGA | 0.00637
57 | CATAACAG | 0.155
58 | TAGACGAA | 0.163
59 | GAGTGTCA | 0.113
60 | AGAGTGCA | -0.147
61 | AAGAACCC | -0.0238
62 | ACCATAAA | -0.00095
63 | CCCAATAC | 0.0194
64 | GGAGTGTA | -0.173
65 | ATTTACCC | -0.0225
66 | CAATCCCG | -0.0545

Row | Sequence | PBM E-score
67 | GAAGCACA | -0.204
68 | ATACCGTG | -0.0765
69 | ATTTCTAC | 0.164
70 | ACTACTTG | -0.0017
71 | AACTTAAC | 0.189
72 | GCACGTGA | 0.387
73 | CCCCGGGG | -0.35
74 | CATTAACG | 0.132
75 | AAGAATCA | -0.0357
76 | ACCTGGGC | -0.321
77 | GGTTGAAC | -0.156
78 | CATTCAGA | -0.0259
79 | ATCCGCTA | -0.0307
80 | GCGTGTCC | -0.0297
81 | ACACATGT | 0.0725
82 | CCTGATTC | -0.163
83 | ATTAAGAC | 0.0342
84 | ATATCACG | 0.309
85 | CGCATAAA | 0.135
86 | GCACTCAA | -0.123
